# This is one part of the list. At the low end of the ranking the order means little. The protein was read in a cell extract, so binding may be indirect.
# Molecular target: T1, HNF4alpha2 (COS-7 nuclear extract) (UniProt P41235)
# T1 sequence: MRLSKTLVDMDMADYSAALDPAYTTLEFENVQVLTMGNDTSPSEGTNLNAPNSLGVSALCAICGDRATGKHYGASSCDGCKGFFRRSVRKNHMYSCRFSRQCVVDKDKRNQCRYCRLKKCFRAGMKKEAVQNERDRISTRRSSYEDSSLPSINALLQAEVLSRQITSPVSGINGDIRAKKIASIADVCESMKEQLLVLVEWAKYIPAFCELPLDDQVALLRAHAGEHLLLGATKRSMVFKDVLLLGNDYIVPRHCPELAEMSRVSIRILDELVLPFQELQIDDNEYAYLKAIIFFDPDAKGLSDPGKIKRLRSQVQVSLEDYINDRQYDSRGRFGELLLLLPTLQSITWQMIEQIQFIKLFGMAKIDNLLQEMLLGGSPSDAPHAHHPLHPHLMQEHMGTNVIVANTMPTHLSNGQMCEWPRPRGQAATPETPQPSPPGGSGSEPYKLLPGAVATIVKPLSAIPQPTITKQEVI
# Assay: protein-binding microarray
# Conditions: COS-7 nuclear extract on double-stranded Agilent 4x180k PBM; binding buffer, salt, pH and temperature not given; high values mean tight binding; double strand, one strand shown; sequences stand for … in …GCCTAGGGAGATTAGAGTATCGGTCGA
row,Sequence,binding signal (log2 normalized intensity)
1,CAGGTGTGTGGCATCTTGGGGTCAAGGCCT,2.63
2,AGCTCTTGGGGAACAATCGCCACTGATTGA,-1.21
3,ACCTTATCAAGTCCGAACTCACTACAAACG,-1.07
4,CACCTCTTCAGATAGCCTTTGCCTCCACCT,1.15
5,AGAGGGAAGACCAAAGGCCAAAGAGCAAAG,0.518
6,GACTCAGCTCCCATAGAGTCCACCACTGAC,-0.67
7,ACCACAAAGCAGTGAGTGAAACATCCCACT,-1.18
8,GCAGGGCTACTGTGGTTCCCAAGAAGAGCC,-1.11
9,ATTTACCGTCTCTCACCAAATCCCTGCCCA,1.57
10,ACTGTTTGTGCAGAGGAGATCAGAGGAGGC,-0.727
11,AAGTTTAATCCTCTCACCCAAGATCAAAGA,2.84
12,TCTGCTACTAACTGCATGACTTCAGAAAGT,-1.05
13,CGAAGAGCAGCCAGCTGCAGAGGAAGGACA,-1.06
14,GACGACTGTCTGCCATGGGCCTGGCTGAGC,-1.15
15,AAAGGATCAACTTTCAGAAGGGGACAAGCA,-1.13
16,GAAGGCTCCCAAGGTATCCTCCTAGAGTCC,-1.04
17,ACAAATTAGACAAGGTTTGTAACAAGTGCT,-1.07
18,ATACAAACAAATTGTGTGCAACAGGAGCCC,-1.13
19,AACTACAGTTGACCTTTGAACACCACAAGT,7.56
20,GGCCTCCCCATCCTCATGACAGTACCTCTC,2.32
21,CTCCTCCTCGTGAGTTGGAGACAGGAGAGG,-0.979
22,GCAGCTAGCTCCAGTTGGTTGCTAAGAGAC,-1.2
23,TCCCAAGCATGTTTGGTGACCCGTGACCCT,5.07
24,GACCCTTCATAGCTTACTTGACAAATGGGG,0.297

row,Sequence,binding signal (log2 normalized intensity)
1,TAGATAGGAATCTGGATGGCTGAGCTGTAA,-0.513
2,AGTCAGTTTAGTCCTGGATGACCCAGATAG,1.31
3,GGAATGTGACCTTAGACCCCTGAATAGGTC,4.76
4,GATGGCTCTGCAGAGGCTTCCTCTTTGGTG,-0.631
5,TGTAAACATGTGAGGAAGGCTCTTTGTTCA,0.558
6,CAGCTCCTCTCCTCCATGGCCTGGGGCCCT,-0.986
7,CAAATTTATATCAGAGGAATGTCTGACCAA,0.536
8,ACACACTCACGGACCCTGTTACCACACCAC,-0.182
9,CCGCCGCTAGGTGGCGGGCTGGCTCAGGAC,-1.05
10,ACCTTTGGTTAACTTCTTAACTTGGTTTCC,0.54
11,GATCTTGAGGCCCACAAGGAATTTCCTTGT,-1.13
12,AAAAAAAAAAAAAAAAAGAACACAGTGTAG,-1.08
13,AAACAAACTCCCAGTCTGTTATCAGAGCTG,-1.14
14,TATCATGAGGTATATTCAACCCCCACTTCC,4.26
15,GAATTCAACCCTTGTCACTTTCCCTTTGTC,1.67
16,TCAAGCTAGGTAAGCACAGGTTTCTGTCCT,0.0877
17,CTCTGCAAACATTTATTTTGTGTGCTAGAT,1.54
18,GTATCTCTTCGCCTTGCTTATCTGGGAGGG,-0.214
19,TTATCAGCAGGACACCAAACAGACCTCCCC,2.42
20,TGGTTACAAAGGTCACACTCCTGTGCAAAC,3.88
21,CTAACAGCTGCAAGTGCCAACAAACTCAAT,-1.13
22,TACCACCAAAGAAAAAAGCCAATCTCTCAA,-1.13
23,ATTTTGGACTTTGTGCAAATGGAAAATTGT,3.21
24,TAAGATTGAGAACTTTGACACCGAGGCATA,1.5

row,Sequence,binding signal (log2 normalized intensity)
1,GGCTTGTACCTTGACCTTCTCTGTTAACCC,4.27
2,CCTTGCCACCCACACTGCAGCAAAACTTTA,-0.723
3,CAGAAAAGGCTGTAAACTCACTCTGGGAAA,-1.18
4,TCTCATTTCTGAACACTCCAAGGTGTCCAG,0.549
5,GGGCTACCGATATGAGGCTTCCATTCTCAG,-1.11
6,TAAGTGTGGGTTTAAGTAAGCCCCCTTCCC,4.48
7,CACAATGTCAGTGAGGCCAAAAGGTGCTAC,-1.09
8,AGCCAATAGGCGAGGACGCAGTCCCGCGTG,-1.06
9,TGGACAGAAATATCAGCAAGGAAATAAAAG,-1.12
10,ACCTAGTAGGCACAAAGGTGCAAAGTACAT,4.3
11,AGTCCAGAGTTTGTGGCTCCATACTCCTTA,-0.835
12,ACACCTCTTCTTTCTTCTCTGGTACCCTGG,1.43
13,CAATTTCCAGGAGTATGTGTTTGCTTTACC,0.472
14,GCTTAAATTCTTGTATGCTTAACTATGTTT,1.35
15,CATATTTTGAAAGAAAGAGACCTTTACCCT,4.91
16,ATACAAGCTAATCTGACCAAGTGAACTGTG,1.23
17,TTCTTTGGTTGGGAATAACATTGTGTAGTT,1.81
18,CTTAGCAGGATTCTTGCTGCAGCTGGGCTA,-1.04
19,GAAGAGACAGCTGGGCCCTGCCTGACCTGC,0.813
20,CGAGCACGGTGCAGGGAGGATATCCCTCCG,-1.02
21,CTGCAAGGTTTGTGTACGGACGCATCTGTC,0.813
22,ACGCAGGGCGGCCGGCGGAGCGCCGAGCAG,-1.01
23,AACAGTGAGCCCAGTGGAGTAGGCTTTAGA,-1.05
24,TTCCCTTGGAATGCCAGATGACCTTTGCCC,9.88
